Some of the results follow.

For this test, the target named is T1, MBP-FoxP1dN (Mus musculus, UniProt P58462 326-579).
T1 sequence: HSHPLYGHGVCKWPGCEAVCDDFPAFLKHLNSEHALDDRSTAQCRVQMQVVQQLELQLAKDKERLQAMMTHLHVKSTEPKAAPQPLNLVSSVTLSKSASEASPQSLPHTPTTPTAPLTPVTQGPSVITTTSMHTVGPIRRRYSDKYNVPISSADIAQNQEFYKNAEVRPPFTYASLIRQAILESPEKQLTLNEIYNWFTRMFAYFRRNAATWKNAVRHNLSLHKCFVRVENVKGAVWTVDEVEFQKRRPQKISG
In words: PD-seq (MBP pull-down with sequencing); 20 mM Tris-HCl pH 7.5, 100 mM NaCl, 1.5 mM MgCl2, 0.4 uM protein, 0.1 uM dsDNA library, 30 min, room temperature, amylose pull-down; high values mean tight binding. The following applies: protein: recombinant; tags: His6-MBP; chain copies: 2; dsDNA, one strand shown. Put shortly: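 Mouse FoxP3 or FoxP1 fragment lacking the N-terminus, His6-MBP-tagged and expressed in E. coli, was incubated at 0.4 µM with 0.1 µM Klenow-filled degenerate double-stranded DNA library for 30 min at room temperature in Tris pH 7.5 buffer with NaCl and MgCl2. Complexes captured on amylose resin were washed three times and their DNA sequenced on Illumina. Binding is reads-per-million enrichment of pull-down over input, replicates pooled.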
Regarding “GATGATTGTTCTCCCAGCTGATGAATTCCTTATTTCGAGTAAACAAATTTTCCTAATCTTTCTGTTCAAGCGCCATCTAC”, the binding signal is 0.97 RPM ratio (pull-down/input). To “GATGATTGTTCTCCCAGCTGATGAATTGAAGTGCTCGAGTAAACAAATTTTCCTAATCTTTCTGTTCAAGCGCCATCTAC” belongs 0.83 RPM ratio (pull-down/input); to “GATGATTGTTCTCCCAGCTGATGAATTAGCCTTGTCGAGTAAACAAATTTTCCTAATCTTTCTGTTCAAGCGCCATCTAC”, 0.856 RPM ratio (pull-down/input). For “GATGATTGTTCTCCCAGCTGATGAATTTGAAAGCTCGAGTAAACAAATTTTCCTAATCTTTCTGTTCAAGCGCCATCTAC”, the binding signal is 0.908 RPM ratio (pull-down/input). For “GATGATTGTTCTCCCAGCTGATGAATTCCGGGTATCGAGTAAACAAATTTTCCTAATCTTTCTGTTCAAGCGCCATCTAC” the value was 0.867 RPM ratio (pull-down/input). For the sequence “GATGATTGTTCTCCCAGCTGATGAATTAAAGCTTTCGAGTAAACAAATTTTCCTAATCTTTCTGTTCAAGCGCCATCTAC”, the binding signal was 1.03 RPM ratio (pull-down/input).

For the sequence “GATGATTGTTCTCCCAGCTGATGAATTAACATCATCGAGTAAACAAATTTTCCTAATCTTTCTGTTCAAGCGCCATCTAC”, the binding signal is 1.31 RPM ratio (pull-down/input). To “GATGATTGTTCTCCCAGCTGATGAATTCGTAAGATCGAGTAAACAAATTTTCCTAATCTTTCTGTTCAAGCGCCATCTAC” belongs 0.903 RPM ratio (pull-down/input). For “GATGATTGTTCTCCCAGCTGATGAATTTGAGCCGTCGAGTAAACAAATTTTCCTAATCTTTCTGTTCAAGCGCCATCTAC” the value was 0.822 RPM ratio (pull-down/input).

Take “GATGATTGTTCTCCCAGCTGATGAATTAACTCAATCGAGTAAACAAATTTTCCTAATCTTTCTGTTCAAGCGCCATCTAC”: the binding signal is 0.866 RPM ratio (pull-down/input). Consider “GATGATTGTTCTCCCAGCTGATGAATTACGTTGTTCGAGTAAACAAATTTTCCTAATCTTTCTGTTCAAGCGCCATCTAC”, for which the binding signal is 1.21 RPM ratio (pull-down/input). For “GATGATTGTTCTCCCAGCTGATGAATTCCCGAATTCGAGTAAACAAATTTTCCTAATCTTTCTGTTCAAGCGCCATCTAC” the value was 0.868 RPM ratio (pull-down/input); for “GATGATTGTTCTCCCAGCTGATGAATTACATGGTTCGAGTAAACAAATTTTCCTAATCTTTCTGTTCAAGCGCCATCTAC”, 1.12 RPM ratio (pull-down/input); for “GATGATTGTTCTCCCAGCTGATGAATTAACTATGTCGAGTAAACAAATTTTCCTAATCTTTCTGTTCAAGCGCCATCTAC”, 0.956 RPM ratio (pull-down/input).

Regarding “GATGATTGTTCTCCCAGCTGATGAATTTAATACTTCGAGTAAACAAATTTTCCTAATCTTTCTGTTCAAGCGCCATCTAC”, the binding signal was 0.972 RPM ratio (pull-down/input). For the sequence “GATGATTGTTCTCCCAGCTGATGAATTGGATAGTTCGAGTAAACAAATTTTCCTAATCTTTCTGTTCAAGCGCCATCTAC”, the binding signal is 0.857 RPM ratio (pull-down/input). Turning to “GATGATTGTTCTCCCAGCTGATGAATTGCTGGTCTCGAGTAAACAAATTTTCCTAATCTTTCTGTTCAAGCGCCATCTAC”, the binding signal is 0.913 RPM ratio (pull-down/input).

“GATGATTGTTCTCCCAGCTGATGAATTTGTGAGTTCGAGTAAACAAATTTTCCTAATCTTTCTGTTCAAGCGCCATCTAC”: the binding signal is 1.17 RPM ratio (pull-down/input). To “GATGATTGTTCTCCCAGCTGATGAATTGGGACTTTCGAGTAAACAAATTTTCCTAATCTTTCTGTTCAAGCGCCATCTAC” belongs 0.838 RPM ratio (pull-down/input); to “GATGATTGTTCTCCCAGCTGATGAATTAAAATTCTCGAGTAAACAAATTTTCCTAATCTTTCTGTTCAAGCGCCATCTAC”, 0.809 RPM ratio (pull-down/input); to “GATGATTGTTCTCCCAGCTGATGAATTTCTTTTGTCGAGTAAACAAATTTTCCTAATCTTTCTGTTCAAGCGCCATCTAC”, 0.952 RPM ratio (pull-down/input). Consider “GATGATTGTTCTCCCAGCTGATGAATTAGGCACATCGAGTAAACAAATTTTCCTAATCTTTCTGTTCAAGCGCCATCTAC”, for which the binding signal is 1.05 RPM ratio (pull-down/input).

Take “GATGATTGTTCTCCCAGCTGATGAATTTAAAAGATCGAGTAAACAAATTTTCCTAATCTTTCTGTTCAAGCGCCATCTAC”: the binding signal was 0.894 RPM ratio (pull-down/input). Regarding “GATGATTGTTCTCCCAGCTGATGAATTGCTTGATTCGAGTAAACAAATTTTCCTAATCTTTCTGTTCAAGCGCCATCTAC”, the binding signal is 1.05 RPM ratio (pull-down/input).

For “GATGATTGTTCTCCCAGCTGATGAATTACTCCCTTCGAGTAAACAAATTTTCCTAATCTTTCTGTTCAAGCGCCATCTAC”, the binding signal was 1.01 RPM ratio (pull-down/input). Take “GATGATTGTTCTCCCAGCTGATGAATTAAGTTGGTCGAGTAAACAAATTTTCCTAATCTTTCTGTTCAAGCGCCATCTAC”: the binding signal is 0.967 RPM ratio (pull-down/input). Turning to “GATGATTGTTCTCCCAGCTGATGAATTGGTGCTCTCGAGTAAACAAATTTTCCTAATCTTTCTGTTCAAGCGCCATCTAC”, the binding signal is 0.869 RPM ratio (pull-down/input). For “GATGATTGTTCTCCCAGCTGATGAATTCCGGCTCTCGAGTAAACAAATTTTCCTAATCTTTCTGTTCAAGCGCCATCTAC” the value was 0.75 RPM ratio (pull-down/input); for “GATGATTGTTCTCCCAGCTGATGAATTTGTACGCTCGAGTAAACAAATTTTCCTAATCTTTCTGTTCAAGCGCCATCTAC”, 1.13 RPM ratio (pull-down/input).

In the case of “GATGATTGTTCTCCCAGCTGATGAATTTAGTAACTCGAGTAAACAAATTTTCCTAATCTTTCTGTTCAAGCGCCATCTAC”, the binding signal was 1.13 RPM ratio (pull-down/input).

For “GATGATTGTTCTCCCAGCTGATGAATTGAGTCGATCGAGTAAACAAATTTTCCTAATCTTTCTGTTCAAGCGCCATCTAC”, the binding signal was 0.913 RPM ratio (pull-down/input).

Values taken from PMC12820563, “FoxP3 forms a head-to-head dimer in vivo and stabilizes its multimerization on adjacent microsatellites”.
